Assay results as given in PubChem BioAssay AID1476 (National Center for Advancing Translational Sciences (NCATS), 2009).
Screen size: about 200,000 compounds; about 4,500 (2.2%) were called active. The shares of active, inactive and inconclusive entries below differ from those in the screen. Calls follow the shape of the dose curve; as a rule, active = well fitted inhibition curve with a large enough effect; inconclusive = small, poorly fitted or top-dose-only effect, or effect the other way; inactive = flat fitted curve, though single readings scatter. Potencies of inconclusive entries are doubtful fits and often do not repeat.
Also: nearly all actives have a fitted effect of over 40% in size.
Potency is read from the fitted curve at half-maximal effect; tags tell the direction and shape of the fitted curve.

Each compound was assayed against Cruzipain (Trypanosoma cruzi) (UniProt P25779) (assay: qHTS Assay for Promiscuous and Specific Inhibitors of Cruzain (without detergent)). Conditions: purified cruzain, Z-FR-AMC fluorescence, no detergent.
UniProt P25779, sequence (P25779 whole entry, looked up): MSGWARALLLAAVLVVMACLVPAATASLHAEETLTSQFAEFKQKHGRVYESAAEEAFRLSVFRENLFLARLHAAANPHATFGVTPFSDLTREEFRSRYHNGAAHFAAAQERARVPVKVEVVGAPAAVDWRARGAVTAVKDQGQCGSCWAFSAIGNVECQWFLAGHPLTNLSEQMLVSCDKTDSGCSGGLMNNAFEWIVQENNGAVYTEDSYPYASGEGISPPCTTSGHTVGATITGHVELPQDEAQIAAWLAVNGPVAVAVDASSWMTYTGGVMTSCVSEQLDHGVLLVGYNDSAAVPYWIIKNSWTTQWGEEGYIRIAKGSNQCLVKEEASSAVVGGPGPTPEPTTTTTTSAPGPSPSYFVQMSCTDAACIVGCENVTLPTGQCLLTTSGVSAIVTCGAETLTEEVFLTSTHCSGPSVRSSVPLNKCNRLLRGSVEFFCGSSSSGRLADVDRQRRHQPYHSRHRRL
Procedure: Cruzain is a cysteine protease from the tropical parasite Trypanosoma cruzi. Dual qHTS experiment was performed against the NCGC compound collection in order to 1) identify novel inhibitors of the enzyme and 2) profile the compound collection for promiscuous inhibitors operating via colloidal aggregation (by performing detergent-free and detergent-containing comparison screens). Cruzain was assayed by the use of fluorogenic coumarin-based substrate Z-FR-AMC: proteolytic cleavage releases AMC, whose fluorescence is measured at 360 nm excitation and 450 nm emission. Purified cruzain was supplied by the labs of Prof. James McKerrow and Brian Shoichet, UC San Francisco.
This assay had 0.00005% Triton X-100 concentration. See also releated assay "qHTS Assay for Promiscuous and Specific Inhibitors of Cruzain (with detergent)" with 0.01% Triton X-100.
See following references for additional details:
Assay Provider: Shoichet, Brian; University of California, San Fancisco
Screening Center PI: Austin, C.P.
Screening Center: NIH Chemical Genomics Center [NCGC]
Buffer: 100 mM Sodium Acetate, pH 5.5, 5 mM DTT, Triton X-100 concentration: 0.01%.
Buffer in columns 3 and 4 as negative control (no enzyme).
Substrate solution: 2 uM final concentration of Z-FR-AMC (catalog number I-1160, Bachem) dispensed throughout the plate.
Enzyme: 1.5 nM Cruzain final concentration in columns 1, 2, 5-48. Column 1 is neutral (100% activity). Column 2 contained titration of covalent inhibitor K11777, starting concentration 1 mM, then 1:2 dilution in duplicate).
Three uL of enzyme or buffer were dispensed to 1536-well Greiner black solid bottom plates. Compounds and controls (23 nL) were transferred via Kalypsys PinTool. The plates were incubated for 15 min at room temperature, and then 1 uL of substrate solution was added to start the reaction. The plates were immediately transferred to and read 4 times every 30 seconds for 2 min on ViewLux High-throughput CCD imager (Perkin-Elmer) using 360 nm excitation and 450 nm emission fluorescence protocol. The fluorescence intensity difference between the third and the first time points (time lapse of 60 seconds) was used to compute reaction progress.
In the case of Cc1nc2sc(C(c3ccc(Br)cc3)N3CC(C)OC(C)C3)c(O)n2n1 (stereo unspecified), the Potency was inconclusive: 31.6 µM [activator, single point]. With CCN(C(=O)CSc1nc2ccccc2nc1Cc1cccc(OC)c1)c1cccc(C)c1 the max response, negative = inhibition was inactive: -5.83%. In the case of COc1cc(/C=C/C(=O)Nc2nc3ccc(S(=O)(=O)N(C)C)cc3s2)cc(OC)c1OC, the max response, negative = inhibition was inactive: -1.65%. With CCCCOc1ccc(C(=O)NCCS(=O)(=O)N2CCN(c3ccccc3OC)CC2)cc1 the Potency was inconclusive: 31.6 µM [activator, single point]. With CN(C)c1ccc(C(CNC(=O)c2ccccc2Cl)N2CCc3ccccc32)cc1 (stereo unspecified) the Potency was active: 31.6 µM. In the case of COc1ccc(CCNc2oc(/C=C/c3ccc(OC)c(OC)c3)nc2C#N)cc1, the Potency was active: 15.8 µM. Cc1ccc(-n2nc(C(=O)NCc3ccc(C)o3)c3c4ccccc4n(C)c3c2=O)cc1 was tested, and the Potency was inconclusive: 39.8 µM [inhibitor, single point]. Cn1c(=O)[nH]c(=O)c2c1nc(N1CCN(CCO)CC1)n2CCSc1nc2ccccc2s1 was tested, and the Potency was inconclusive: 25.1 µM [inhibitor, single point]. For CC(=O)Nc1c(C)nn(-c2ccccc2)c1N1CCC(C(=O)Nc2ccc(C)cc2Cl)CC1, the Potency was inconclusive: 31.6 µM [activator, partial curve]. For COc1cccc(-n2ccnc2SCC(=O)Nc2nc3ccc(C)cc3s2)c1, the Potency was inconclusive: 3.98 µM [activator, partial curve]. For COCCn1c(=O)c(-c2ccc(OC)cc2)nc2cnc(N3CCNCC3)nc21, the max response, negative = inhibition was inactive: 2.77%. CCOC(=O)c1c(C)[nH]c(C(=O)/C(C#N)=C/c2ccc(OC)c(OC)c2)c1C was tested, and the Potency was inconclusive: 39.8 µM [activator, single point]. In the case of Cc1cccc(N=C2NN=C(c3c[nH]c4ccccc34)CS2)c1, the Potency was active: 7.94 µM. In the case of COC(=O)[C@@]1(Cc2ccc(OC)cc2)[C@H]2c3cc(C(=O)N(C)C)n(Cc4ccc(C(F)(F)F)nc4)c3C[C@H]2CN1C(=O)c1ccccc1, the Potency was inconclusive: 7.94 µM [activator, full curve]. With CCCOC(=O)c1ccc(NC(=O)CSC2=Nc3ccccc3C3CC=NN23)cc1 (stereo unspecified) the Potency was inconclusive: 39.8 µM [inhibitor, single point]. With CCn1cc(/C=N/N=C2\CCC3C4CCc5cc(O)ccc5C4CC[C@]23C)c(C)n1 (stereo partly specified) the Potency was inconclusive: 39.8 µM [activator, single point]. For Cc1ccc(C)c(-c2ccc(=O)n(C(C)C(=O)Nc3ccccc3C(F)(F)F)n2)c1 (stereo unspecified), the Potency was inconclusive: 39.8 µM [activator, single point]. For O=C1/C(=C\c2ccccc2)CCc2c1[nH]c1ccccc21, the Potency was inconclusive: 39.8 µM [inhibitor, single point]. For COc1ccc2c(c1)OCC1=C2CCC2(C)C(=O)CC=C12 (stereo unspecified), the Potency was inconclusive: 25.1 µM [activator, single point]. With FC(F)(F)c1ccccc1-c1cncnc1NCCN1CCOCC1 the max response, negative = inhibition was inactive: 1.05%. With CCSc1ncc(Cl)c(C(=O)Nc2ccc(S(=O)(=O)N3CCCCC3CC)cc2)n1 (stereo unspecified) the Potency was inconclusive: 20 µM [inhibitor, partial curve]. Cc1nc(NC(=O)c2ccc(Cl)cc2)sc1Cc1ccc2c(c1)OCO2 was tested, and the Potency was inconclusive: 39.8 µM [inhibitor, single point]. With Cc1ccc(C(CC(=O)N2CCOCC2)c2ccco2)cc1 (stereo unspecified) the Potency was inconclusive: 31.6 µM [activator, single point]. In the case of Cn1cccc1CNCCc1ccc(F)cc1, the Potency was inconclusive: 25.1 µM [inhibitor, single point]. For Cc1cccc(NC(=O)c2ccc(F)c(S(=O)(=O)NCc3ccc4c(c3)OCO4)c2)c1, the max response, negative = inhibition was inactive: -4.13%. For CCOC(=O)c1ccc(NC(=O)C2CCN(S(=O)(=O)Cc3ccccc3)CC2)cc1, the max response, negative = inhibition was inactive: -4.11%. In the case of COC(=O)c1ccccc1NC(=O)c1cc(=O)c2ccc(C)c(C)c2o1, the max response, negative = inhibition was inactive: -3.12%. For COc1ccc(CCNC(=O)Cn2ccc3cc(S(=O)(=O)N4CCCCC4)ccc32)cc1OC, the Potency was inconclusive: 39.8 µM [activator, single point]. With Cc1ccc(N(C(=O)c2cccc(C)c2)S(=O)(=O)c2ccc(Cl)cc2)cc1 the Potency was inconclusive: 31.6 µM [inhibitor, single point]. For Cc1c(Cl)cnc(NC(=O)COC(=O)c2cccc(S(=O)(=O)N3c4ccccc4CC3C)c2)c1Cl (stereo unspecified), the Potency was inconclusive: 31.6 µM [inhibitor, single point]. For COc1ccc(NC(=O)/C(Cl)=C(/Cl)S(=O)Cc2ccccc2)cn1 (stereo unspecified), the Potency was inconclusive: 25.1 µM [activator, single point]. In the case of COc1ccc(C(=O)c2cn(Cc3cccc(C)c3)c3cc4c(cc3c2=O)OCCO4)cc1OC, the Potency was inconclusive: 3.16 µM [inhibitor, single point]. Cc1cccc(-c2cc3nc(-c4ccccc4)cc(N4CCC5(CC4)OCCO5)n3n2)c1 was tested, and the Potency was inconclusive: 39.8 µM [inhibitor, single point]. With N#Cc1ccc(-c2ccc(F)cc2)nc1Sc1ccc(F)cc1 the Potency was inconclusive: 39.8 µM [inhibitor, single point]. For CC(=NCc1ccco1)c1c(O)n(C)c(=O)n(C)c1=O, the max response, negative = inhibition was inactive: 1.19%. In the case of Cc1ccc(CCNC(=O)CN2CCN(Cc3ccc(Cl)cc3)C2=O)cc1, the Potency was inconclusive: 31.6 µM [activator, single point]. For Cc1ccc(S(=O)(=O)Nc2ccc3c(c2)c(C(=O)OC(C)C)c(C)n3S(=O)(=O)c2ccc(C)cc2)cc1, the Potency was active: 5.01 µM. In the case of Cc1ccc2nc(Nc3nc(C)cc(C(F)(F)F)n3)nc(C)c2c1, the max response, negative = inhibition was inactive: -0.11%. CCC1(C)Cc2ccccc2-c2nc(NCCCO)n(-c3ccccc3)c(=O)c21 (stereo unspecified) was tested, and the Potency was inconclusive: 25.1 µM [activator, partial curve]. For COc1cc(/C=N/Nc2nc3ccccc3[nH]2)ccc1O, the Potency was inconclusive: 31.6 µM [inhibitor, single point]. C=CCC(O)(C(=O)OC)c1ccccc1 (stereo unspecified) was tested, and the max response, negative = inhibition was inactive: -1.31%. For CCc1ccc(NC(=O)c2ccc3c(c2)c(C)c(C)n3Cc2ccccc2)cc1, the Potency was active: 12.6 µM. With Cc1c(C(=O)Nc2ccc(Cl)cc2)c2ccccn2c1C(=O)c1ccccc1 the Potency was inconclusive: 7.94 µM [inhibitor, single point]. For CCc1ccc(NC(=O)c2oc3c(c2C)-c2[nH]ncc2CC3)cc1, the Potency was inconclusive: 31.6 µM [activator, single point]. Oc1ccc(Nc2nc(-c3ccc(Cl)cc3)nc3ccccc23)cc1 was tested, and the Potency was inconclusive: 39.8 µM [inhibitor, single point]. With CCOCCCn1c(=N)c(C(=O)NC2CCCC2)cc2c(=O)n3cccc(C)c3nc21 the max response, negative = inhibition was inactive: 2.63%. For c1ccc(CCn2c3ccccc3c3nnc(SCc4ccc5nonc5c4)nc32)cc1, the Potency was inconclusive: 31.6 µM [inhibitor, single point]. For Cc1nnc2c3ccccc3nc(N3CCN(c4cccc(Cl)c4)CC3)n12, the Potency was inconclusive: 31.6 µM [activator, single point]. COc1ccc(-c2nc3scc(CCNS(=O)(=O)c4cccc(C(C)=O)c4)n3n2)cc1 was tested, and the max response, negative = inhibition was inactive: -8.99%. In the case of CNc1nnc(CSc2nc(C)cc(C)n2)s1, the max response, negative = inhibition was inactive: -0.794%. In the case of Cc1ccc(CCNC(=O)c2ccc(CSCc3ccc(C)cc3)o2)cc1, the max response, negative = inhibition was inactive: -25.1%. In the case of N#Cc1ccc(-c2csc(NNC(=O)c3ccc(Br)cc3)n2)cc1, the Potency was active: 7.94 µM. With O=C(CSc1nc2c(oc3ccccc32)c(=O)[nH]1)Nc1cccc(Cl)c1 the Potency was active: 7.94 µM. CC1=C(c2ccc(Cl)cc2)S(=O)(=O)NC1=NCc1ccc(C)cc1 was tested, and the max response, negative = inhibition was inactive: 6.73%. CCCCc1nc(NCc2ccccc2)c(C#N)c2c1COC(C)(C)C2 was tested, and the Potency was active: 25.1 µM. With CC(C)n1c(=O)c2oc3ccccc3c2n(Cc2ccccc2F)c1=O the max response, negative = inhibition was inactive: 14.5%. With COC(=O)C1=C(C)Nc2ncnn2C1c1ccc(OCc2ccccc2)cc1 (stereo unspecified) the Potency was inconclusive: 39.8 µM [inhibitor, single point]. For Cc1nc(SCC(=O)Nc2ccc(F)cc2)c(C#N)c(C)c1CC(=O)c1ccc(Br)cc1, the Potency was inconclusive: 39.8 µM [inhibitor, single point]. In the case of O=C(/C=C/c1ccco1)Nc1ccc(Cl)c(-c2nc3cc(Cl)ccc3o2)c1, the Potency was inconclusive: 31.6 µM [inhibitor, single point]. In the case of O=C(COc1ccccc1-c1ccccc1)N/N=C/c1cccc2ccccc12, the Potency was inconclusive: 15.8 µM [inhibitor, single point]. For Cc1ccc(C)c(N2CCN(C(=O)COc3cc(=O)n(C)c4ccccc34)CC2)c1, the Potency was inconclusive: 31.6 µM [activator, single point]. For Cc1ccc(NC(=O)c2cc(-c3ccccc3)nn2-c2ccccc2)cc1, the Potency was inconclusive: 31.6 µM [inhibitor, single point]. With Cc1cc(C)c(S(=O)(=O)Nc2cccc(-c3cn4ccccc4n3)c2)c(C)c1 the Potency was inconclusive: 31.6 µM [inhibitor, single point]. COc1ccccc1CNc1nc(-c2ccc3c(c2)OCO3)nc2ccccc12 was tested, and the Potency was inconclusive: 39.8 µM [inhibitor, single point]. With O=[N+]([O-])c1c(NCc2ccccc2)cc(N2CCc3ccccc3C2)c2nonc12 the Potency was inconclusive: 31.6 µM [inhibitor, single point]. In the case of O=C1Nc2cc(Cl)ccc2Oc2cc(Oc3ccccc3)ccc21, the Potency was inconclusive: 25.1 µM [inhibitor, single point].
